From PubChem BioAssay (NCATS)
Some of the results follow. These are further read-outs of the screen, such as a control signal, another cell line or another target. No call is given for them. For some of these results: Most of these compounds were active or inconclusive in the main read-out, so they are no random draw. The note in brackets gives the kind of curve behind each potency; many fits are weak.

Columns and labels:
[1] = qHTS drug screen for cell cycle checkpoint inhibitors in PARPi-resistant BRCA-mutant ovarian cancer cell lines. (AID 1963452); conditions: PEO1/OlaR viability, CellTiter-Glo luminescence, 96 h
How it was run: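 PEO1, PEO4 and PEO1/OlaR ovarian cancer cells, 600 per well, exposed 96 h at 37C to a dilution series. Viability read by CellTiter-Glo luminescence, normalized to DMSO and empty wells; activity summarized as Z-AUC.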

[2] = qHTS for identification of novel therapeutic agents for treatment of microphthalmiaassociated transcription factor (MiT) renal cell carcinoma (RCC) (AID 1963991); conditions: CellTiter-Glo, 48 h; for z-score: stronger effect = lower value
How it was run: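 Three TFE3-fusion RCC cell lines (UOK109, UOK124, UOK145), 500 cells/well, were exposed to the 1912-compound MIPE 4.0 library for 48 hours at 37 C. Viability was read by CellTiter-Glo luminescence, normalised to DMSO (100%) and empty wells (0%), with 11-concentration curve fits.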

[3] = measured here: PEO1 parental viability
[4] = TFE3-RCC UOK109 viability, measured here: UOK109 Z-AUC
[5] = TFE3-RCC viability, measured here: UOK124 Z-AUC
[6] = TFE3-RCC viability, measured here: UOK124 cell viability
[7] = TFE3-RCC viability, measured here: UOK145 Z-AUC
[8] = TFE3-RCC viability, measured here: UOK145 cell viability
Tags give direction and shape of the fitted curve.

SMILES	AC50 [1, 3]	z-score [2, 4]	z-score [2, 5]	AC50 [2, 6]	z-score [2, 7]	AC50 ([1]; measured here: PEO4 viability)	AC50 [2, 8]
O=C(Nc1ccccc1Br)N[C@@H]1CCN(c2ccc(C(F)(F)F)cn2)C1	24.5 µM [falling, single point]	0.278	0.506	16.6 µM [falling, partial curve]	0.443	–	–
CN1CCN(c2ncc(-c3cc(Cl)cc(Cl)c3Cl)c(N)n2)CC1	–	0.0224	0.393	–	0.316	13.8 µM [falling, partial curve, poor fit]	23.5 µM [falling, single point]
O=C1CCc2ccc(OCCCCN3CCN(c4cccc(Cl)c4Cl)CC3)cc2N1	15.5 µM [falling, partial curve]	0.873	0.326	18.7 µM [falling, partial curve]	0.731	–	–
Cc1c(C)n(Cc2ccc(-c3ccccc3C(=O)O)cc2)c2ccc(C(=O)N[C@@H](C)c3ccc([N+](=O)[O-])cc3)cc12	–	-1.43	0.566	–	-0.185	27.5 µM [falling, partial curve, poor fit]	2.64 µM [falling, partial curve, poor fit]
Cc1cnc(-c2cnc(NCCNc3ccc(C#N)cn3)nc2-c2ccc(Cl)cc2Cl)[nH]1	–	-0.609	-0.546	20.9 µM [falling, single point]	-0.284	13.8 µM [falling, partial curve, poor fit]	16.6 µM [falling, partial curve]
N#Cc1ccc(C(c2ccc(C#N)cc2)n2cncn2)cc1	–	0.0317	0.372	–	0.416	0.0087 µM [rising, full curve, poor fit]	18.7 µM [falling, partial curve]
CN(C)CC(=O)N1CCC(c2ccc(NC(=O)c3ncc(C#N)[nH]3)c(C3=CCCCC3)c2)CC1	19.5 µM [falling, single point]	0.735	-2.74	23.5 µM [falling, single point]	0.634	–	33.2 µM [falling, single point]
NCC(=O)Nc1ccc(-n2nc(C(F)(F)F)cc2-c2ccc3c(ccc4ccccc43)c2)cc1	9.77 µM [falling, partial curve, poor fit]	0.694	1.84	26.4 µM [falling, partial curve]	-0.0972	–	18.7 µM [falling, partial curve]
CS(=O)(=O)N(Cc1ccco1)CC(O)Cn1c2ccccc2c2ccccc21 (stereo not given)	13.8 µM [falling, partial curve, poor fit]	0.0118	-0.644	–	-0.831	–	14.8 µM [falling, partial curve, poor fit]
C[C@H](NC(=O)C(=O)Nc1ccccc1C(C)(C)C)C(=O)N[C@@H](CC(=O)O)C(=O)COc1c(F)c(F)cc(F)c1F	27.5 µM [falling, partial curve, poor fit]	0.313	0.693	–	0.0696	–	18.7 µM [falling, partial curve]
COC(=O)N1CCN(Cc2cccc(NC(=O)Nc3ccc(C)nc3)c2F)CC1	21.9 µM [falling, partial curve, poor fit]	1.09	1.82	10.5 µM [falling, partial curve, poor fit]	0.15	–	–
CC(C)n1cnc2c(NCCCCCCNC(=O)OC(C)(C)C)nc(NCCO)nc21	8.71 µM [falling, partial curve]	1.1	-0.077	11.8 µM [falling, partial curve, poor fit]	0.802	–	–
c1ccc(-c2nn3c(c2-c2ccnc4cc(OCCN5CCOCC5)ccc24)CCC3)nc1	–	0.206	-0.47	–	0.326	0.49 µM [rising, partial curve, poor fit]	4.69 µM [falling, partial curve]
Oc1ccc(C2CCN(c3ccnc4ccccc34)CC2)cc1O	4.36 µM [falling, full curve]	-0.133	0.0909	16.6 µM [falling, partial curve]	0.564	–	16.6 µM [falling, partial curve, poor fit]
CCc1cncnc1N1CCN(Cc2nc3ccc(C(F)(F)F)cc3[nH]2)CC1	15.5 µM [falling, partial curve]	0.326	0.0658	23.5 µM [falling, partial curve]	0.281	–	14.8 µM [falling, partial curve, poor fit]
O=C(Nc1cccc(Br)c1)c1cccc(S(=O)(=O)N2CCCCCC2)c1	6.92 µM [falling, partial curve, poor fit]	0.3	0.159	18.7 µM [falling, partial curve]	-0.465	–	–
